Data reported in the supplement of paper PMC3334620.
In all, about 33,000 sequences were measured (“E-score (-0.5 to 0.5)”: median about -0.016, highest 2% from about 0.31 on). This is one part of the list.

biological target: Cst6 (UniProt P40535); assay: PBM E-score (8-mer binding enrichment) (E-score (-0.5 to 0.5)); higher = stronger / more preferred TF binding; most listed sequences are background and not binding sites; details: protein concentration: 200 nM; construct: GST-DNA-binding domain
Summary of the method: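 Yeast transcription factors carrying a GST tag, as full-length proteins or DNA-binding domains, were produced by PURExpress in vitro transcription/translation. About 100-200 nM protein was applied to universal all-10-mer Agilent arrays, double-stranded by primer extension on fresh or once-stripped slides. Bound protein was detected with fluorescent anti-GST, and scans were normalised with masliner. The Universal PBM Analysis Suite gave each ungapped eight-base word, pooled with its reverse complement, an E-score, a modified Wilcoxon-Mann-Whitney statistic.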

In order of rising “PBM E-score” value:
1. AGAGGCTG  -0.377
2. CTGGGGCC  -0.361
3. ATAACCCG  -0.359
4. ACCCTCTC  -0.352
5. ACGACCGG  -0.345
6. AGCCCGCT  -0.345
7. GGGGTACA  -0.335
8. GGGGAACC  -0.33
9. CAGAAGGA  -0.316
10. GCACCCCC  -0.304
11. AAGGACTT  -0.296
12. GGGCCTAA  -0.282
13. CTCCCAAG  -0.277
14. CCAGCTGG  -0.276
15. ACTACCGG  -0.272
16. CCAGATTC  -0.266
17. CTCTAGAC  -0.264
18. CCTGATCA  -0.257
19. AGACTGAG  -0.255
20. AGCCCTCG  -0.253
21. AGGGGCAT  -0.239
22. AGTAGAGG  -0.237
23. GTTTAGGA  -0.234
24. ACGGACTG  -0.23
25. AACTCTCT  -0.217
26. CCCCAGCG  -0.216
27. GATGCCCC  -0.211
28. AGAGCCAG  -0.209
29. CACTCGGG  -0.209
30. CCACCTCC  -0.208
31. TACCTAGA  -0.202
32. AAGGGTTC  -0.198
33. TAGGCCCA  -0.194
34. AGGTGCTG  -0.194
35. ACCGGGTG  -0.19
36. CACGCCCG  -0.175
37. CATGTGAG  -0.172
38. AAGGATAC  -0.169
39. GACCTGCA  -0.169
40. CGAACCCA  -0.169
41. CGGACCAC  -0.167
42. AACTAGGG  -0.166
43. GTCCCTAA  -0.165
44. AGATTGCC  -0.163
45. GAATGCCC  -0.16
46. ACTGCCCG  -0.159
47. AGCAGAGC  -0.155
48. CGACCATA  -0.155
49. AACCTAAG  -0.15
50. CATCTCGG  -0.148
51. CTGACCAG  -0.148
52. CACCATCG  -0.148
53. CTCGCAAA  -0.143
54. ATGCCTGA  -0.141
55. AAGGGTCT  -0.139
56. CCTGGGAA  -0.136
57. AAACCCTG  -0.134
58. CCTCTAAA  -0.134
59. CGCCTGCA  -0.132
60. GGAAATCC  -0.129
61. AGCCTCAT  -0.119
62. ACCACAGA  -0.117
63. ACCGCGGG  -0.115
64. CTCTCGTA  -0.113
65. AGGGCGAC  -0.112
66. TACCCCAA  -0.11
67. AACGAGAC  -0.101
68. AGCATCTC  -0.1
69. ACCAGTAG  -0.096
70. ACTTCCGA  -0.095
71. AGCCCCGC  -0.0935
72. CGCGAGAA  -0.0934
73. GCAATTCC  -0.0773
74. GCCACGAC  -0.0747
75. GTCCTTCA  -0.0707
76. CTGTACGA  -0.0659
77. CCATGGAA  -0.0645
78. ATGTGGAG  -0.0629
79. AGCAGTAC  -0.0567
80. AAGTGGCA  -0.0565
81. CGTTCAGC  -0.0555
82. ATGAAAAG  -0.0551
83. CGAGTTCA  -0.0549
84. AACAGGTG  -0.054
85. AGCAACCT  -0.053
86. GGCGCTTA  -0.0518
87. GTCCATGA  -0.0498
88. ACTGCTTA  -0.0493
89. AGCGAGAG  -0.0445
90. GACTGTAC  -0.043
91. AAAGGGTT  -0.0393
92. AACGATAA  -0.035
93. CCTCAGAC  -0.0304
94. GGAAGCAA  -0.0297
95. CTTGGATA  -0.029
96. ATTGGCGA  -0.0278
97. ACAATGCC  -0.0253
98. CAAATCCA  -0.0205
99. AGAGCGGA  -0.0178
100. AGTGTGAG  -0.0176
101. TCGCAGCA  -0.0127
102. GAAAGGAA  -0.0123
103. CCTTTACA  -0.00965
104. ATGTGAAC  -0.00899
105. CTCACGTA  -0.00865
106. GCACTGTA  -0.00858
107. CTCTGTTA  -0.00703
108. CGCCACCG  -0.007
109. ACCTCGTG  -0.00326
110. AACGCTTC  -0.00173
111. ATAAAGGG  -0.00024
112. CTCGCCTA  0.00413
113. AACCACCA  0.00505
114. CTGACCAA  0.00651
115. GAAACATC  0.00667
116. AAGTTTAA  0.00739
117. CCACGATA  0.00768
118. ATTAGCCC  0.00901
119. ATCTAGCA  0.0103
120. CCAAATCG  0.0121
121. ATGTTGAG  0.0156
122. CCGTATGC  0.0167
123. GTTGACTA  0.0191
124. TGGTCACA  0.0201
125. AGCGCTTA  0.0246
126. GCGCGACC  0.0302
127. AAAGGATC  0.0311
128. TAACTGTA  0.032
129. AACAGATG  0.0323
130. CAGGAAAA  0.0388
131. ATAGACGG  0.0397
132. CATCCGTC  0.0423
133. AAACTGAA  0.0424
134. GTGTGGAA  0.0515
135. GGTATTAA  0.053
136. CCCGCAAA  0.0549
137. ATCTCATC  0.0588
138. GACGACGA  0.0598
139. ACATACTA  0.0612
140. GCCTTGCA  0.0649
141. AACTTTGG  0.0661
142. GCCTTGGA  0.069
143. GCGATAAC  0.0758
144. CACTGTCA  0.0758
145. AAAGACAT  0.0761
146. ATTGCACC  0.0773
147. GAACATAA  0.0774
148. AATACAGT  0.0826
149. AGTTACGC  0.0936
150. CGAACTAA  0.0961
151. ACTTCGCC  0.0981
152. GCAATGGA  0.0982
153. ACCACGTC  0.102
154. ACTTATTG  0.106
155. ACATACAA  0.109
156. CTAAAGAA  0.11
157. CCTTGATA  0.112
158. ACGATAAA  0.112
159. ACCACATC  0.114
160. ACCGTGAT  0.118
161. CAGTTAAA  0.12
162. CCGATTCG  0.123
163. TTCTTAAA  0.125
164. TAAATTAA  0.127
165. CGAACGTC  0.129
166. AAACTCTC  0.129
167. AATCACCT  0.13
168. TCACCGCA  0.131
169. ATATCTGC  0.137
170. AAACAAGT  0.141
171. CGACAATA  0.142
172. AAATCGTC  0.144
173. ACGGTCAA  0.146
174. AACAGCCA  0.148
175. ATTGGAAC  0.148
176. TCGCATAA  0.148
177. CACCATTA  0.154
178. AAAGTTAC  0.154
179. AAAGTAGG  0.157
180. AAAATTAG  0.159
181. CATGGTTA  0.161
182. AGGACGTC  0.161
183. GTTAAACA  0.162
184. ACGTCCCT  0.162
185. ATGTCGTC  0.163
186. CTCAAACA  0.165
187. ACCTGACG  0.166
188. GCACAAAA  0.171
189. AAAGATAT  0.174
190. AAAAACCA  0.175
191. GTGATACA  0.177
192. ACGACAAC  0.184
193. AACCGCGA  0.187
194. CATAAGGC  0.194
195. ACAATACC  0.199
196. ACATGTAA  0.203
197. CATTACGA  0.205
198. ATACGTCG  0.215
199. AAACAAAA  0.219
200. TAGTATCA  0.22
201. GGGATGAC  0.221
202. CTCTAATA  0.223
203. ATTATGTG  0.228
204. ACCTAATC  0.232
205. CATACAAA  0.235
206. AATGACCT  0.25
207. CATTTGTA  0.258
208. ATTGCGCG  0.263
209. AGGTGATG  0.271
210. ATATTAAT  0.278
211. TACAAATA  0.279
212. GACACGGC  0.291
213. CTACATCA  0.302
214. ACAAAAAA  0.311
215. ATCATTTA  0.335
216. AGCCGCAT  0.338
217. CGTCATAG  0.468
218. ATATGACG  0.472
219. CGTCATCC  0.473
